Laboratory results reported in PubChem BioAssay AID1457 (National Center for Advancing Translational Sciences (NCATS), 2008).
About 730 (0.35%) of roughly 210,000 compounds were called active. The inconclusive results got no clear call from the source; some entries with a clear call stand among them for comparison. Calls follow the shape of the dose curve; as a rule, active = well fitted inhibition curve with a large enough effect; inconclusive = small, poorly fitted or top-dose-only effect; inactive = no such curve, though single readings can be large or run the other way. Potencies of inconclusive entries are doubtful fits and often do not repeat.

Assay: qHTS Assay for Identifying the Cell-Membrane Permeable IMPase Inhibitors: Potentiation with Lithium; also: nearly all actives have a fitted effect of over 50% in size;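 as to activity, negative = IMPase inhibition: plate controls were basal vehicle for no effect and high inhibitor control for full effect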
Conditions: CHO-M1 cells, IP1 TR-FRET (IP-One), carbachol + lithium; series mostly up to 59.4 µM; activity, negative = IMPase inhibition: at the top concentration
Outline: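 Steps: plate 2000 CHO-M1 cells per well and culture 16–30 h; add compound and lithium; incubate 30 min, 37C; add d2-IP1 tracer and Eu cryptate anti-IP1 antibody in lysis buffer; read after 10 min at room temperature.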
Potency is read from the fitted curve at half-maximal effect.

Row | Structure (SMILES) | Potency | activity, negative = IMPase inhibition
1 | COc1ccc(C(=O)Nc2ccccc2C(=O)NC(Cc2ccc(O)cc2)C(=O)NNC(=O)c2ccccc2Cl)cc1 (stereo not drawn) | inconclusive: 28.2 µM [inhibitor, single point] | –
2 | Cc1cc(NC(=O)COc2ccc3oc4ccccc4c3c2)no1 | inconclusive: 12.6 µM [inhibitor, single point] | –
3 | CCCn1c(SCC(=O)N2c3ccccc3CC2C)nnc1-c1ccco1 (stereo not drawn) | – | inactive: -0.615%
4 | N#CCSc1nc2cc(C(=O)N3CCCC3)ccc2c(=O)n1Cc1ccccc1 | inconclusive: 28.2 µM [inhibitor, single point] | –
5 | Cc1ccc(C(=O)Nc2nc3ccccc3s2)s1 | inconclusive: 28.2 µM [inhibitor, single point] | –
6 | O=C(COC(=O)c1ccc(Cl)cc1O)NC(=O)C1CCCCC1 | inconclusive: 28.2 µM [inhibitor, single point] | –
7 | S=c1[nH]cnc2sc(-c3ccccc3)cc12 | inconclusive: 10 µM [inhibitor, partial curve] | –
8 | COc1c2c(nc3ccccc13)O[C@H]([C@@](C)(O)CO)C2 | – | inactive: -1.97%
9 | O=C(c1ccc(N2CCCC2=O)cc1)N1CCCCCC1 | – | inactive: -26.7% [at 38.3 µM]
10 | COC(=O)CCc1c(C)c(C(=O)c2ccco2)c2ccccn12 | inconclusive: 7.08 µM [inhibitor, partial curve] | –
11 | CCOc1cccc(NC(=O)CSc2nc(C)c3c(c2C#N)CCCC3)c1 | active: 3.98 µM | –
12 | COC(=O)c1ccc2c(=O)n(CCCN3CCCC3=O)c(=S)[nH]c2c1 | inconclusive: 28.2 µM [inhibitor, single point] | –
13 | CCOC(=O)c1c(C)[nH]sc1=S | active: 14.1 µM | –
14 | CCCCn1c(=O)[nH]c(=O)c2c(C(=O)OCC)cc(-c3ccc(OC(F)F)cc3)nc21 | inconclusive: 12.6 µM [inhibitor, single point] | –
15 | O=C(CSc1nc(-c2ccc(F)cc2)nc2ccc(F)cc12)Nc1cccc(C(=O)O)c1 | inconclusive: 10 µM [inhibitor, partial curve] | –
16 | COc1ccc2cc(CCN3C(=O)c4ccccc4C3=O)c(=O)[nH]c2c1 | inconclusive: 28.2 µM [inhibitor, single point] | –
17 | CNC(=O)c1ccc(NC(=O)/C=C/c2cccc(F)c2)cc1 | inconclusive: 3.98 µM [inhibitor, full curve] | –
18 | COCCCNc1nc2c(-c3cccc(C(F)(F)F)c3)nnn2c2ccccc12 | inconclusive: 31.6 µM [inhibitor, single point] | –
19 | Cc1cc(C)nc(N/C(=N\S(=O)(=O)Cc2ccccc2)Nc2cccc(Cl)c2C)n1 | inconclusive: 10 µM [inhibitor, partial curve] | –
20 | Cc1ccc(-n2nc(C)c3c(-c4cccs4)c(C#N)c(N)nc32)cc1 | inconclusive: 28.2 µM [inhibitor, single point] | –
21 | O=c1c2cccnc2[nH]c(=S)n1Cc1ccccc1 | active: 10 µM | –
22 | CCCCCC(=O)Nc1nc(C)c(-c2csc(Nc3ccccc3OC)n2)s1 | – | inactive: 21.7% [at 38.3 µM]
23 | CCCOc1ccc(N2C(=O)CC(N(CCOC34CC5CC(CC(C5)C3)C4)C(C)=O)C2=O)cc1 (stereo not drawn) | inconclusive: 3.55 µM [inhibitor, full curve, poor fit] | –
24 | O=c1c2cc(N3CCOCC3)ccc2[nH]c(=S)n1Cc1ccccn1 | inconclusive: 10 µM [inhibitor, partial curve] | –
25 | COc1ccc(-c2cc(C(F)(F)F)n3ncc(C(=O)NCC4CCCO4)c3n2)cc1OC (stereo not drawn) | inconclusive: 28.2 µM [inhibitor, single point] | –

Row | Structure (SMILES) | Potency | activity, negative = IMPase inhibition
26 | Cc1cccc(Nc2nc3c(S(=O)(=O)c4ccccc4)nnn3c3ccccc23)c1C | inconclusive: 28.2 µM [inhibitor, single point] | –
27 | CCN(c1cccc(C)c1)S(=O)(=O)c1cnc[nH]1 | – | inactive: 19.6% [at 38.3 µM]
28 | CC(C)Cc1c2c([nH]c(=S)c1C#N)CCCC2 | inconclusive: 11.2 µM [inhibitor, partial curve] | –
29 | Cc1ncc(CO)c(/C=N/NC(=O)c2cc(O)c(O)c(O)c2)c1O | – | inactive: 16.4%
30 | Cc1cc(-c2nnc3sc(-c4ccc(Cl)cc4Cl)nn23)n[nH]1 | active: 10 µM | –
31 | CCc1ccc(N2CSC3=C(C#N)C(c4cccs4)CC(=O)N3C2)cc1 (stereo not drawn) | – | inactive: -13.5% [at 38.3 µM]
32 | COc1ccc(-c2cc3ccc(OCc4nn[nH]n4)cc3oc2=O)cc1 | inconclusive: 28.2 µM [inhibitor, single point] | –
33 | CC(=O)Nc1sc(NC(=O)c2ccc(Cl)cc2)nc1-c1cccs1 | – | inactive: 7.23% [at 38.3 µM]
34 | Cc1ccc(NC(=O)CSc2nnc(-c3cnccn3)n2Cc2ccco2)cc1C | inconclusive: 17.8 µM [inhibitor, single point] | –
35 | Cc1ccc(OCC(=O)Nn2c(C)nc3ccccc3c2=O)c(C(C)C)c1 | inconclusive: 25.1 µM [inhibitor, single point] | –
36 | CCOc1ccc(CN2C(=O)c3ccccc3C2=O)cc1C(=O)Nc1nnc(SCC)s1 | inconclusive: 5.01 µM [inhibitor, single point] | –
37 | S=C(N/N=C/c1ccc2ncccc2c1)Nc1cccnc1 | – | inactive: 8.41%
38 | Cc1noc(C)c1-c1nc(N2CCNCC2)c2ccccc2n1 | – | inactive: -0.0069%
39 | COc1cccc(-c2nn3c(-c4ccco4)nnc3s2)c1 | active: 11.2 µM | –
40 | Cc1cc(N2C(=O)C(=O)/C(=C(/O)c3ccc(F)cc3)C2c2cccc(Br)c2)no1 (stereo not drawn) | inconclusive: 11.2 µM [inhibitor, single point] | –
41 | O=C(NCc1ccco1)c1sc2cccc(F)c2c1Cl | inconclusive: 12.6 µM [inhibitor, single point] | –
42 | CCOC(=O)COc1cccc2c(=O)n(CC(=O)N3CCc4ccccc43)ccc12 | inconclusive: 14.1 µM [inhibitor, single point] | –
43 | CC(C)CC1(C(=O)NCCc2c[nH]c3ccccc23)C=CCN1C(=O)c1ccccc1 (stereo not drawn) | inactive | –
44 | Cc1nc(SCC(=O)Nc2ccccc2C(F)(F)F)c(C#N)c(C)c1CC(=O)c1ccc(Br)cc1 | active: 10 µM | –
45 | CN(Cc1ccco1)c1cc(-c2ccoc2)ncn1 | – | inactive: 5.7%
46 | CN(C)C(CNC(=O)/C=C/c1cccc(Cl)c1)c1ccccc1 (stereo not drawn) | – | inactive: 18%
47 | CCCCCN1C=CC(=C2C(=O)c3ccccc3C2=O)C=C1 | – | inactive: -3.36%
48 | Cc1csc(NC(=O)CSc2nnc(NC(=O)COc3ccc(Cl)cc3)s2)n1 | inconclusive: 31.6 µM [inhibitor, single point] | –
49 | Cc1ccnc(NC(=O)CSc2cc(=O)n(C)c3ccccc23)c1 | inconclusive: 12.6 µM [inhibitor, partial curve] | –
50 | COc1cc(C#N)c(NC(=O)CN2CCC(C(N)=O)CC2)cc1OC | inconclusive: 3.55 µM [inhibitor, full curve, poor fit] | –

Row | Structure (SMILES) | Potency | activity, negative = IMPase inhibition
51 | Cc1nn(Cc2ccc(F)cc2)c(C)c1NC(=O)c1cnn2c1NC(c1ccccc1)CC2C(F)(F)F (stereo not drawn) | inconclusive: 3.16 µM [inhibitor, partial curve] | –
52 | CCN(CC(=O)NC1CCS(=O)(=O)C1)S(=O)(=O)c1ccc(C)c(C)c1 (stereo not drawn) | – | inactive: 1.37%
53 | Fc1ccc(Nc2ncnc3sc4c(c23)CCC4)cc1 | – | inactive: 28.9% [at 38.3 µM]
54 | O=C1CCCN1CCCNC(=S)Nc1ccc(Cl)cc1Cl | inconclusive: 3.16 µM [inhibitor, single point] | –
55 | NC(=S)c1cc2ccc(O)cc2oc1=O | active: 3.16 µM | –
56 | COCCCn1c(=S)[nH]c2c(sc3ccccc32)c1=O | active: 10 µM | –
57 | COc1cc(NC(=O)c2cc3ccccc3o2)c(OC)cc1Cl | inconclusive: 22.4 µM [inhibitor, single point] | –
58 | CC1(C)Cc2ccccc2-c2n[nH]c(=S)n21 | inconclusive: 11.2 µM [inhibitor, single point] | –
59 | C(=C/c1nccc2c1[nH]c1ccccc12)/c1ccc2c(c1)OCO2 | inconclusive: 31.6 µM [inhibitor, single point] | –
60 | COc1ccc(-c2occ(C(=O)O)c2C(=O)O)cc1 | inconclusive: 11.2 µM [inhibitor, single point] | –
61 | COc1ccccc1C1C(C(=O)c2cc3ccccc3o2)=C(O)C(=O)N1CCN(C)C (stereo not drawn) | active: 8.91 µM | –
62 | CC(C)c1ccc(OCC(=O)NC(=S)Nc2ccc3c4c(cccc24)CC3)cc1 | active: 12.6 µM | –
63 | Cc1cc(C)n(-c2ccc(C(=O)C(C#N)c3nc4ccccc4n3C)cc2)n1 (stereo not drawn) | inconclusive: 28.2 µM [inhibitor, single point] | –
64 | COc1ccc(-c2cc(C(=O)Nc3ccccc3F)on2)cc1 | inconclusive: 22.4 µM [inhibitor, single point] | –
65 | CC[C@@]1(O)C(=O)OCc2c1cc1n(c2=O)Cc2cc3c(CN(C)C)c(O)ccc3nc2-1 | inconclusive: 28.2 µM [inhibitor, single point] | –
66 | CCN(Cc1ccncc1)C(=O)c1cccs1 | – | inactive: -13.1% [at 38.3 µM]
67 | CCOC(=O)C1CCN(C(c2cc3ccc(C)cc3[nH]c2=O)c2nnnn2C2CCCCC2)CC1 (stereo not drawn) | inconclusive: 28.2 µM [inhibitor, single point] | –
68 | Cc1cccc(Cn2cnc3c(nnn3Cc3ccc(Cl)cc3)c2=O)c1 | – | inactive: 3.35% [at 38.3 µM]
69 | O=C(Nc1ccc(NC(=O)c2sc3ccccc3c2Cl)cc1)c1ccco1 | inconclusive: 10 µM [inhibitor, partial curve] | –
70 | COC(=O)c1c(C#N)c(N)nc2c1CCCC2 | inconclusive: 25.1 µM [inhibitor, single point] | –
71 | COC(=O)c1ccccc1NC(=S)NC(=O)c1ccccc1 | – | inactive: -6.56% [at 38.3 µM]
72 | CC(=O)c1cc(F)c(N2CCN(CCC#N)CC2)cc1C | – | inactive: 4.69%
73 | COc1cc2c(=O)n(Cc3ccco3)c(=O)n(CC(=O)c3ccc(Br)cc3)c2cc1OC | inconclusive: 12.6 µM [inhibitor, partial curve] | –
